Results as given in PubChem BioAssay AID624417 (National Center for Advancing Translational Sciences (NCATS), 2012).
Among all 410,000 compounds or so, about 6,400 (1.6%) were called active. The shares of active, inactive and inconclusive entries below differ from those in the screen. The call rests on the fitted dose curve; in most records, active means well fitted inhibition curve with a large enough effect; inconclusive means small, poorly fitted or top-dose-only effect; inactive means no such curve, though single readings can be large or run the other way. Potencies of inconclusive entries are doubtful fits and often do not repeat.

What follows are molecules tested against Glucagon-like peptide 1 receptor (Homo sapiens) (UniProt P43220) (assay: qHTS of GLP-1 Receptor Inverse Agonists (Inhibition Mode)). Settings: HEK293 GLP-1R CRE-luciferase, luminescence, 24 h, GLP-1R form is constitutively active; series mostly up to 38.3 µM.
Procedure, shortened: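 qHTS in 1536-well format: reporter HEK293 cells expressing constitutive GLP-1R activity in DMEM + 10% Nu serum, 24 hr with compounds at 37 deg C, luminescence read after 12 min with detection reagent.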
Further: nearly all actives have a fitted effect of over 55% in size.
Potency means the concentration at half of the fitted maximal effect; tags describe the fitted curve by direction and shape.

UniProt P43220, sequence (P43220 whole entry, looked up): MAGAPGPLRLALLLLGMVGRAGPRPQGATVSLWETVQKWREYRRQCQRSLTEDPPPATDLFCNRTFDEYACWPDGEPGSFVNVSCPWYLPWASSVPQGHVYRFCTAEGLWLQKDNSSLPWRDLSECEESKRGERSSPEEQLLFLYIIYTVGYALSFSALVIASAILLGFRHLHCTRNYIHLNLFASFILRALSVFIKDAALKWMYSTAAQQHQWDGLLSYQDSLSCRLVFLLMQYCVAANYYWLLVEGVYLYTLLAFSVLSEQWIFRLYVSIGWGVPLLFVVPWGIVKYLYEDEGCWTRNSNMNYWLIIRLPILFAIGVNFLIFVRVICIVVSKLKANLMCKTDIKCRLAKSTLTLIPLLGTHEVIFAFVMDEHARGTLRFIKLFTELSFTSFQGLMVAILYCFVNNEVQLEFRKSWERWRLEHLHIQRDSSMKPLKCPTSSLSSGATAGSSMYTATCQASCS

Potency, inactive:
Cc1ccc(NCc2ccc(O)c3ncccc23)cc1C, CCc1nnc(NC(=O)CSc2nnc(C)n2CC2CCCO2)s1 (stereo not drawn), CCC(Oc1ccc(F)cc1)C(=O)Nc1c(C(=O)c2ccc(C)cc2)oc2ccccc12 (stereo not drawn), O=C(Nc1cccc(-c2nc3ccccc3[nH]2)c1)c1ccco1, OCc1ccc(N=Nc2ccccc2)cc1, COC(=O)c1ccc(NC(=S)N2CCC(C(N)=O)CC2)cc1, CCCc1nn2c(=O)cc(COC(=O)c3ccc(NC(=O)COc4ccccc4)cc3)nc2s1, COc1ccc(CNC(=O)c2cccc3c(-c4cnn(C)c4)coc23)cc1OC, COc1ccc(Cl)cc1C(Nc1cccnc1)c1ccc2cccnc2c1O (stereo not drawn), Cc1ccc(S(=O)(=O)CC(=O)N2CCN(c3nc4c(F)cccc4s3)CC2)cc1, Cc1nc2c([nH]c3ccc(Br)cc32)s1, COc1ccc(CNC(=O)CCc2c(C)c3cc4c(C)coc4c(C)c3oc2=O)cc1OC, COc1ccc(OCC(=O)Nc2nnc3n2CCS3)cc1

Potency, active:
Cc1cc2c(cc1C)CSC(c1ccccc1OC(=O)C(C)(C)C)SC2 10 µM

Potency, inconclusive:
CCC1=C(OC(=O)N(CC)CC)N2C(=O)OC(=NCCc3c[nH]c4ccccc34)[C@]2(C)[C@H]2C1=CC[C@H]1C(=O)N(CC)C(=O)[C@H]12 28.2 µM [inhibitor, single point], CC(C)(C)c1csc(Sc2ncccc2[N+](=O)[O-])n1 14.1 µM [inhibitor, single point], c1ccc2c(c1)-c1nc3ccccc3cc1C2N1CCOCC1 (stereo not drawn) 10 µM [inhibitor, partial curve, poor fit], CCOc1ccccc1NC(=O)c1ccc(S(=O)(=O)N2CCCCC2)cc1 28.2 µM [inhibitor, single point], CCn1cc(C(=O)N2CCN(c3ccccc3)CC2)c(=O)c2cc(S(=O)(=O)N3CCOCC3)ccc21 28.2 µM [inhibitor, single point], Oc1ccccc1N1CCN(c2nc(-c3cccs3)nc3ccccc23)CC1 11.2 µM [inhibitor, partial curve, poor fit], Cc1ccc(C(=O)Nc2ccc(S(=O)(=O)N3CCCC3)cc2)cc1 31.6 µM [inhibitor, single point], CCn1c2c(c(=O)n3ncc(C(=O)N4CCN(c5ccc(Cl)cc5)CC4)c13)CN(Cc1ccc(OC)cc1)CC2 7.08 µM [inhibitor, partial curve], Cc1ccc(C(=O)NCCn2cc(SCC(=O)Nc3nnc(C)s3)c3ccccc32)cc1 11.2 µM [inhibitor, single point], CCCCN(CC)C(=O)C1CCCN(S(=O)(=O)c2cccc3nsnc23)C1 (stereo not drawn) 31.6 µM [inhibitor, single point], O=C(NCCc1ccccc1)C(=O)NCC1CCCN1S(=O)(=O)c1ccccc1 (stereo not drawn) 10 µM [inhibitor, partial curve, poor fit], O=C(N/N=C\c1ccc(-c2ccc([N+](=O)[O-])cc2)o1)C1COc2ccccc2O1 (stereo not drawn) 31.6 µM [inhibitor, single point], COc1ccc(-c2ccc3[nH]c4c(c3c2)CCN2C(=O)[C@@H]([C@H](C)O)[C@@H](N(C)C(=O)Nc3ccc(F)cc3)C[C@@H]42)cc1 6.31 µM [inhibitor, partial curve, poor fit], CN(c1ccc(C(=O)NC2CCCCC2)cc1)S(=O)(=O)c1ccccc1 6.31 µM [inhibitor, partial curve, poor fit], C[C@@H](C(=O)Nc1ccc2ccccc2c1)[C@H]1C[C@]1(C)[C@H](NC(=O)c1cccnc1)c1ccccc1 14.1 µM [inhibitor, single point], Cc1nonc1C1CCCN1Cc1nc(-c2ccccc2Cl)oc1C (stereo not drawn) 7.94 µM [inhibitor, partial curve, poor fit], Nc1ccc(S(=O)(=O)C(F)(F)F)cc1N 10 µM [inhibitor, partial curve], CC(C)(C)c1ccc(C(=O)Nc2ccc(S(=O)(=O)Nc3cnc4ccccc4n3)cc2)cc1 7.94 µM [inhibitor, partial curve, poor fit], O=C(Cc1ccc(S(=O)(=O)N2CCOCC2)s1)N(Cc1ccccc1)c1ccccc1 20 µM [inhibitor, single point], CCOc1cc(/C=C/C(=O)NCCc2ccc(S(N)(=O)=O)cc2)ccc1OCC(C)C 11.2 µM [inhibitor, single point], COc1ccc(Cl)cc1NC(=O)CSc1nnc(Cc2ccc(C)cc2)c(=O)[nH]1 5.62 µM [inhibitor, partial curve, poor fit], Nc1ccccc1SCC(=O)Nc1nc(-c2ccccc2)cs1 1 µM [inhibitor, full curve, poor fit], CCCN1CCN(C(=O)c2cc(COc3ccc(F)c(F)c3)on2)CC1 28.2 µM [inhibitor, single point], O=C(OCc1ccccc1)N1C=CCC[C@@H]1c1c(Cl)cccc1Br 10 µM [inhibitor, single point], Cc1ccccc1CN1C2=NCCN2c2ccccc21 15.8 µM [inhibitor, partial curve, poor fit], CCOc1ccc(N2CC(C(=O)Nc3ccc(S(=O)(=O)N4CCCCC4)cc3)CC2=O)cc1 (stereo not drawn) 8.91 µM [inhibitor, partial curve, poor fit], O=C(/C=C/c1c[nH]c2ccccc12)c1cccc2ccccc12 3.55 µM [inhibitor, partial curve, poor fit], CC(=O)NS(=O)(=O)c1ccc(N=c2ssc3c2-c2ccc(C)cc2NC3(C)C)cc1 20 µM [inhibitor, single point], Oc1ccccc1CNCc1ccccc1 0.501 µM [inhibitor, full curve, poor fit], Cc1ccc(C)c(Sc2ccc(NC(=O)CCl)cc2)c1 12.6 µM [inhibitor, single point], COc1ccc(Cl)cc1NC(=O)N1CCN(CCc2ccccc2)CC1 2.82 µM [inhibitor, full curve, poor fit], CCN(Cc1nc2ccccc2c(=O)[nH]1)Cc1nc2ccsc2c(=O)[nH]1 2.51 µM [inhibitor, full curve, poor fit], CC1CCCC(C)N1/N=C/c1ccc([N+](=O)[O-])cc1 (stereo not drawn) 11.2 µM [inhibitor, single point], CCC(=O)Nc1nc2ccccc2n1Cc1ccc(Cl)cc1 12.6 µM [inhibitor, partial curve, poor fit], C=CCc1ccc(OCCOCCNCCCC)c(OC)c1 15.8 µM [inhibitor, single point], CC(C)C(NC(=O)C(c1ccccc1)c1ccccc1)c1nc2ccccc2[nH]1 (stereo not drawn) 3.98 µM [inhibitor, partial curve], COc1ccc(C)cc1Nc1n[n+](-c2ccccc2)c(-c2c(Cl)cccc2Cl)s1 10 µM [inhibitor, partial curve, poor fit], COCC1CCCCN1C(=O)c1ccc2oc(CCc3ccccc3)nc2c1 (stereo not drawn) 28.2 µM [inhibitor, single point], CCOC(=O)N1CCN(Cc2nc3cc(NC(=O)c4ccc(OC)cc4)ccc3n2C(C)C)CC1 1.26 µM [inhibitor, partial curve, poor fit], CN1CCSc2ccc(C(=O)NCc3cccc(F)c3)cc21 11.2 µM [inhibitor, partial curve], COCCn1c(C)cc(C(=O)CSc2nnc3ccccn23)c1C 1.41 µM [inhibitor, full curve, poor fit], Cc1ccc(NC(=O)c2c(C)nc(Nc3nc4ccccc4o3)nc2C)cc1 11.2 µM [inhibitor, single point], Cc1nn(-c2ccccc2)c(C)c1NC(=O)COc1ccc(Br)cc1Cl 22.4 µM [inhibitor, single point], CS(=O)(=O)N(Cc1nc(-c2ccc(F)cc2)no1)c1ccccc1Cl 11.2 µM [inhibitor, single point], Cc1ccc(C)n1-c1nn(S(=O)(=O)c2cccc(C(F)(F)F)c2)c2cccc(F)c12 14.1 µM [inhibitor, partial curve, poor fit], CCc1ccc(NC(=O)N2CCN(c3ccc(F)cc3)CC2)cc1 10 µM [inhibitor, partial curve, poor fit], CC(Oc1ccc(Cl)cc1Cl)C(=O)NCCCCc1ccccc1 (stereo not drawn) 10 µM [inhibitor, partial curve, poor fit], O=C(Nc1nc(-c2ccccc2)cs1)C1CCCCN1S(=O)(=O)c1ccccc1 (stereo not drawn) 10 µM [inhibitor, partial curve, poor fit], Cn1nc(C(F)(F)F)c(C(=O)Nc2ccc(F)cc2F)c1Oc1cccc(Cl)c1 14.1 µM [inhibitor, single point]
